Assay results published in paper PMC9792355.
No constants are given. Whether binding was seen depends on the method and setting. In cells and extracts the contact can be indirect. Some entries that bind do so weakly or less than the wild type.

Chains of the proteins cited; added tags and fusions are not shown.
UniProt P51451: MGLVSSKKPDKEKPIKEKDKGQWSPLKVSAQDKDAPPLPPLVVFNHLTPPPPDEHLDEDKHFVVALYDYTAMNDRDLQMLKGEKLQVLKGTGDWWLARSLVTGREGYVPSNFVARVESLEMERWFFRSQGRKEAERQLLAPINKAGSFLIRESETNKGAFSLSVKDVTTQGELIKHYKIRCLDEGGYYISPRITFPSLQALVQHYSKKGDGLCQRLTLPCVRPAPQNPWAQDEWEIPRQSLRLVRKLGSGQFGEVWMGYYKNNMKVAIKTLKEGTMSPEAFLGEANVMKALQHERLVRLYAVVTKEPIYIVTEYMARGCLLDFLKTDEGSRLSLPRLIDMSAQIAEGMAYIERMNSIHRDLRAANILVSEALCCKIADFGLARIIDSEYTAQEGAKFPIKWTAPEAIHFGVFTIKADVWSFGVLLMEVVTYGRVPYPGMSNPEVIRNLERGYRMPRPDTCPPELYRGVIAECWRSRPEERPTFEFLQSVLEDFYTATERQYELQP
UniProt P07947: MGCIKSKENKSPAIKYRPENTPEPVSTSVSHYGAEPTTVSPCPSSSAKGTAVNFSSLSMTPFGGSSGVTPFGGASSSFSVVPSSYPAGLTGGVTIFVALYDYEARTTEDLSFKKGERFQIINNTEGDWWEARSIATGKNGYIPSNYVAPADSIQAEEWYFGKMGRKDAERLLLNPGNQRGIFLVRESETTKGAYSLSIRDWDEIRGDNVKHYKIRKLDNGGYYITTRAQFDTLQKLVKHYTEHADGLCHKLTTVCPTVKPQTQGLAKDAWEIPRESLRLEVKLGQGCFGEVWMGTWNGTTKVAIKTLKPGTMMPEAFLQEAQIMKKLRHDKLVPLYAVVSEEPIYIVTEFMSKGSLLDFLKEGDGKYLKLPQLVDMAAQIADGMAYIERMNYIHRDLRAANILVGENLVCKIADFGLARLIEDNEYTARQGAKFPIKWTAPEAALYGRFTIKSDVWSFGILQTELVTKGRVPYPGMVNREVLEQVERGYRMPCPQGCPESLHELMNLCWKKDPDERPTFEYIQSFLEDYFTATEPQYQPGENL
UniProt P06239: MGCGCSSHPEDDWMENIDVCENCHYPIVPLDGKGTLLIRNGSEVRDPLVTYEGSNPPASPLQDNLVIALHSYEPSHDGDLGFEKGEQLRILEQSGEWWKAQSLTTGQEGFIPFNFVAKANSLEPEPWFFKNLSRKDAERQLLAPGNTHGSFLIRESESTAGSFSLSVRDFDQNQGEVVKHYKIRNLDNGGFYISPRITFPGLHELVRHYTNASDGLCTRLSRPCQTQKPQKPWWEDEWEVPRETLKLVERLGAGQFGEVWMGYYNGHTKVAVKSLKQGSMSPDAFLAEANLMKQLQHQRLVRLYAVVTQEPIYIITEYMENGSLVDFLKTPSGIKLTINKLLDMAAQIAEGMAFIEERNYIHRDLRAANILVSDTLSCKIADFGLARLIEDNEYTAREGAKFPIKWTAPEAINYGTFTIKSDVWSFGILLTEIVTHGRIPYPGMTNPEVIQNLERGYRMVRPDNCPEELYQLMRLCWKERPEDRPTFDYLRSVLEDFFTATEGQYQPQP

Legend:
Assay in all cases: split reporter; Gaussia princeps luciferase complementation assay (GPCA) in HEK293T cells: Gluc2 on SKAP2/SKAP1, Gluc1 at the N (N1) or C (C1) terminus of the SRC kinase; 100 ng plasmid pair, luminescence read after lysis; normalized luminescence ratio (NLR), for mutants divided by that of wildtype SKAP2; loss of interaction = mean relative NLR among the nine kinases below 0.25
[1] = biological target: C1-fused BLK (B lymphocyte kinase) (UniProt P51451)
[2] = biological target: C1-fused FGR (Feline Gardner-Rasheed sarcoma viral homolog) (UniProt P09769)
[3] = biological target: C1-fused YES (UniProt P07947)
[4] = biological target: N1-fused FGR (Feline Gardner-Rasheed sarcoma viral homolog) (UniProt P09769)
[5] = biological target: N1-fused LCK (lymphocyte-specific kinase) (UniProt P06239)

binding [1]: binds
binding [2]: binds
binding [3]: binds
binding [4]: binds
binding [5]: binds
B1: N2-SKAP1 (SRC kinase adaptor phosphoprotein 1) (protein, UniProt Q86WV1 1-359)
chain: MQAAALPEEIRWLLEDAEEFLAEGLRNENLSAVARDHRDHILRGFQQIKARYYWDFQPQGGDIGQDSSDDNHSGTLGLSLTSDAPFLSDYQDEGMEDIVKGAQELDNVIKQGYLEKKSKDHSFFGSEWQKRWCVVSRGLFYYYANEKSKQPKGTFLIKGYGVRMAPHLRRDSKKESCFELTSQDRRSYEFTATSPAEARDWVDQISFLLKDLSSLTIPYEEDEEEEEKEETYDDIDGFDSPSCGSQCRPTILPGSVGIKEPTEEKEEEDIYEVLPDEEHDLEEDESGTRRKGVDYASYYQGLWDCHGDQPDELSFQRGDLIRILSKEYNMYGWWVGELNSLVGIVPKEYLTTAFEVEER
